PubChem BioAssay AID1159614 (National Center for Advancing Translational Sciences (NCATS), 2016)
The whole screen tested about 45,000 compounds, of which about 65 (0.1%) were called active. Calls come from the whole dose curve; as a rule, active = well fitted activation curve with a large enough effect; inconclusive = small, poorly fitted or top-dose-only effect; inactive = no such curve, though single readings can be large or run the other way. The list shows a part of the results.

These molecules were tested against Galactocerebrosidase (Homo sapiens) (UniProt P54803) (assay: A Novel Cell-Based Assay to Identify Small Molecules for B -Galactocerebrosidase). Settings: 145M-Twi-hGALC-G270D cells (Twitcher mouse brain line with human GALC G270D), HMU-beta-Gal fluorescence, 48 h; series mostly up to 57.5 µM; activation: at the top concentration.
How it was run: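 Fluorescence readout: HMU-β-gal cleavage by mutant GALC (0.1 mM final, citrate/phosphate pH 5.2 with 1 mg/mL taurocholate), stopped with carbonate/bicarbonate plus Triton X-100. Cells: murine Twitcher 145M-Twi expressing human G270D GALC; qHTS for activators.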
Note: 0% is about no effect; nearly all actives have a fitted effect of over 65% in size.

UniProt P54803, sequence (P54803 whole entry, looked up): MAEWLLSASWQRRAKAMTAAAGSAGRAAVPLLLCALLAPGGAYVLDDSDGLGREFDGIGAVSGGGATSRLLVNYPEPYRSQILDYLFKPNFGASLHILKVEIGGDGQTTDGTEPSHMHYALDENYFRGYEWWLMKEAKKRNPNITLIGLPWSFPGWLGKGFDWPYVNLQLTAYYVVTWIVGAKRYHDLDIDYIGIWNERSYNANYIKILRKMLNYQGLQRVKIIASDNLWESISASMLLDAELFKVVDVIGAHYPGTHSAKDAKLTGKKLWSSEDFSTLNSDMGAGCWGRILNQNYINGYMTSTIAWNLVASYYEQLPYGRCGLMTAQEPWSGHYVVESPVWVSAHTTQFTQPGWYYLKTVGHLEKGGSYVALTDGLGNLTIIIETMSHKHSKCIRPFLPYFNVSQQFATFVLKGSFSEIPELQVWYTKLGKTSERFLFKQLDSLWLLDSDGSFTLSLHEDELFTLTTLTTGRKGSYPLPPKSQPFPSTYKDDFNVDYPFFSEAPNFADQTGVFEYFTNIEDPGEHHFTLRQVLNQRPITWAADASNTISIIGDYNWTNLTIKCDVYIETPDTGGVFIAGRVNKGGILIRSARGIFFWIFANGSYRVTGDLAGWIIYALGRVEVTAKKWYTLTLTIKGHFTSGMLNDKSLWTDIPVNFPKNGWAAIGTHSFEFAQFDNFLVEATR

activation, inactive:
Cc1ccccc1NC(=O)Cn1c(=O)n(CCCC(=O)NCc2ccc3c(c2)OCO3)c(=O)c2ccccc21 -10.1%
COc1ccc2[nH]cc(CCN=C(NC(=O)c3ccccc3F)Nc3nc(C)cc(C)n3)c2c1 -5.19%
O=c1cc(-c2ccccc2)c2ccc3c(c2o1)CN(Cc1cccc(Cl)c1)CO3 -23.9%
CCC(C)NC(=O)CN1C(=O)c2cccnc2Sc2ccccc21 (stereo not drawn) -9.07%
COc1cccc(NCc2cccn2-c2nnc(N3CCC(C)CC3)s2)c1 -23.8%
C[C@]12CCC(=O)C=C1[C@@H]1C[C@@H]1[C@H]1[C@@H]3[C@@H]4C[C@@H]4[C@@]4(CCC(=O)O4)[C@@]3(C)CC[C@@H]12 -19.2%
Cc1ccc(-c2cn3cccnc3n2)cc1NC(=O)C(C)(C)Oc1ccc(Cl)cc1 18.3%
COc1ccc(Cl)cc1NC(=O)c1c(NCc2ccc(C)o2)sc2c1CCC(C)C2 (stereo not drawn) -13.8%
Cc1c(C(=O)Nc2ccccc2Br)oc2ccc(S(=O)(=O)N3CCCCCC3)cc12 -14%
C=C(C)CSc1nc2sc3c(c2c(=O)n1Cc1ccccc1)CC(C)(CC)OC3 (stereo not drawn) -6.09%
Cc1nc(N)nc(N)c1-c1ccc(Cl)c(Cl)c1 -6.75%
O=C(O)c1cc(=O)[nH]c(=O)[nH]1 -3.02%
Cn1c(=O)c2sccc2n2c(CCC(=O)N3CCN(c4ccccc4)CC3)nnc12 -19.7%
CCC(=O)Nc1sc2c(c1C(=O)Nc1ccccc1C)CCC(C)C2 (stereo not drawn) -15.7%
Cc1ccc(-n2nc3ccc(NC(=O)c4cc5ccccc5o4)cc3n2)cc1 -15.6%
COc1ccc2nc(NC(=O)c3ccc(S(=O)(=O)N4CCC(C)CC4)cc3)sc2c1 -11.2%
COC(=O)c1ccccc1NC(=O)c1noc2c1CSc1ccccc1-2 -3.38%
Cc1cccc(C)c1OCCCCn1c(C2CC(=O)N(c3ccc(F)cc3)C2)nc2ccccc21 (stereo not drawn) -2.77%
CCOC(=O)c1cccc(NC(=O)NCCc2c(C)nn(C)c2C)c1 -8.83%
CCc1ccc(NC(=O)N2CCN(Cc3cc(=O)n4nc(-c5ccccc5OC)sc4n3)CC2)cc1 -15.6%
CCC(Cc1ccccc1)NC(=O)c1oc(=O)c2ccccc2c1-c1ccccc1 (stereo not drawn) -9.97%
COc1ccc(-c2nc(CSCC(=O)NCCc3ccc(C)cc3)c(C)o2)cc1OC -16.7%
COC(=O)c1cc2occc2n1CC(=O)Nc1cccc(SC)c1 -13.1%
CCn1c(=N)c(C(=O)NCc2cccnc2)cc2c(=O)n3cc(C)ccc3nc21 -15.1%
CC(=O)NCCCCCC(=O)O -12.1%
O=S(=O)(NCC(c1ccco1)N1CCN(c2ccc(F)cc2)CC1)c1ccccc1 (stereo not drawn) -19.7%
CCOC(=O)Cn1cc2c(c1-c1ccc(Cl)cc1)c(=O)n(C)c(=O)n2C -18.7%
CCc1noc2nc(C)n(CC(=O)O)c(=O)c12 -5.68%
CN(C(=O)CSc1nc2ccccc2n1CC(=O)NCc1ccc(F)cc1)c1ccc(F)cc1 -14.5%
CCS(=O)(=O)c1ccccc1C(=O)N(Cc1cccnc1)c1nc2cc(C)c(C)cc2s1 -8.21%
CCOc1ccc(CNC(=O)c2ccc(NC(=O)c3nsc4ccccc34)cc2)cc1 -34.9%
O=c1n(CCCN2CCN(c3cccc(Cl)c3)CC2)nc2ccccn12 -14.9%
Cc1c(C(=O)NCc2ccc(Cl)cc2)sc2nc3n(c(=O)c12)CCCC3 -20.1%
COc1ccccc1Cc1nc2ccccc2nc1SCC(=O)NCCc1ccccc1 -6.32%
CCCCN(Cc1ccccc1)S(=O)(=O)c1ccc2c(c1)CC(C)N2C(=O)CC (stereo not drawn) 17.2%
CCN(CC)CCCNC(=O)c1c(C)oc2ncnc(N3CCOCC3)c12 -8.8%
Cc1ccc(-c2noc(CN(C3CCCCC3)S(=O)(=O)c3ccc(Cl)cc3)n2)cc1 -10.6%
Oc1ccc(Cl)cc1Sc1cc(Cl)ccc1O -13.3%
COc1ccc(-c2nc3n(n2)C(c2ccccc2F)C(C(=O)Nc2cccnc2)=C(C)N3)cc1OC (stereo not drawn) -17.4%
Cc1ccc(CNc2ncnc3c2c(-c2ccccc2)cn3-c2cccc(Cl)c2)cc1 0.788%
Cc1cccc(-n2c(=O)c3c(c4cc(C)ccc4n3C)n(CC(=O)Nc3ccccc3C(F)(F)F)c2=O)c1 -13.7%
c1ccc(C(c2cccs2)c2c[nH]c3ccccc23)cc1 (stereo not drawn) -0.519%
COCCCNC(=O)c1sc2ncccc2c1-n1cccc1 -14.9%
O=C(Nc1ccc(F)c(Cl)c1)N1CCN2CCCCC2C1 (stereo not drawn) -6.73%
COc1ccc(C2CC(=O)c3c([nH]c(C(=O)OC4CCC(C)CC4)c3C)C2)cc1OC (stereo not drawn) -2.28%
CCCCN(C(=O)c1cccc(S(=O)(=O)N2CCCCC2)c1)C1CCS(=O)(=O)C1 (stereo not drawn) -11.1%
O[C@@H](CNC[C@H](O)[C@H]1CCc2cc(F)ccc2O1)[C@@H]1CCc2cc(F)ccc2O1 -8.01%
Cc1ccc2cccc(NC(=O)c3cccc4ccccc34)c2n1 -12.6%
CCN(CC)c1ccc(-c2nc(-c3ccncc3)no2)cc1[N+](=O)[O-] -11.9%
CCc1cccc2sc(N3CCN(C(=O)C4CC4)CC3)nc12 -17.2%
CCCCNC(=O)CSc1nc2cc3c(cc2c(=O)n1CCCC(=O)NCc1ccc2c(c1)OCO2)OCO3 -7.42%
Cc1cc(C)cc(C(=O)N2CC(=O)Nc3ccc(C)cc3C2c2ccccc2)c1 (stereo not drawn) -2.24%
CCN1C(=O)c2cccc3c(S(=O)(=O)Nc4ccc(O)c(C(=O)O)c4)ccc1c23 -20.7%
CCS(=O)(=O)Nc1cc(-c2cn3ccc(C)cc3n2)ccc1C -16.9%
CCOc1ccccc1C(=O)N(Cc1ccc(N(C)C)cc1)CC1CCCO1 (stereo not drawn) -14.2%
CC(C)(C)OC(=O)N1CCC(c2c(C(=O)N3CCc4ccccc4C3)cnn2-c2ccc(Cl)cc2)CC1 -33%
Cc1ccc(CNC(=O)C(=O)NCC(c2cccs2)S(=O)(=O)c2ccc(C)cc2)cc1 (stereo not drawn) 2.04%
COC(=O)c1sccc1S(=O)(=O)N(CC(=O)NCc1ccccc1)c1ccccc1 -9.8%
Cc1ccc(CNC(=O)CSc2ncc(S(=O)(=O)c3ccc(Br)cc3)c(=O)[nH]2)cc1 -8.88%
Nc1c(C(=O)Nc2ccccc2Cl)c2ccccn2c1C(=O)c1ccc(Cl)cc1 -14.4%
COc1ccc(NC(=O)CSc2nc3c([nH]c4ccccc43)c(=O)n2C)cc1 -1.27%
CCn1c(C)c(C2N3CC4(C)CN2CC(CC)(C3)C4=O)c2ccccc21 (stereo not drawn) -14%
CCc1nn(CC(=O)NCCC(C)C)c(=O)c2cc3occc3n12 0.275%
COc1ccc(NS(=O)(=O)c2ccc3c(c2)C(C(C)C)C(=O)N3)cc1 (stereo not drawn) -23.9%
COc1ccc(Nc2ncnc3c2cnn3-c2ccc(C)cc2C)cc1 -16.9%
Cc1nn(C(=O)c2ccccc2F)c(C)c1S(=O)(=O)N1CCOCC1 -0.47%
COc1cccc(CC(=O)Nc2ccc3nc(N4CCC(C)CC4)cc(C)c3c2)c1 11%
Cc1c(C(=O)N2CCC(C)CC2)c(S(=O)(=O)NCc2ccccc2)c(C)n1C -4.68%
CCOc1ccccc1NS(=O)(=O)c1c(C)nc2sccn2c1=O -6.7%
COc1ccccc1C(=O)Nc1ccc2nc(N3CCC(C)CC3)cc(C)c2c1 -9.32%
CC(=O)c1cccc(NC(=O)Cn2c(=O)c(CNc3ccc(C)cc3)cc3cc4c(cc32)OCCO4)c1 -2.83%
Cc1ccc(C(=O)Nc2ccc(Br)cc2)cc1S(=O)(=O)N1CCOCC1 -34.1%
Cc1ccc(-c2sc(C(=O)Nc3ccc(Br)cc3)cc2CC(=O)O)cc1 -28.2%
Cc1cc(C)c(NC(=O)Cn2c(SCC(=O)NCc3ccccc3)nc3ccccc32)c(C)c1 -24.9%
CCn1c(=O)c2cc(C(=O)N(CCCOC(C)C)Cc3ccco3)sc2c2ccccc21 -19.3%
COc1cc(Cl)c(C)cc1NC(=O)CCn1c(=O)c2cccn2c2cccnc21 -9.14%
CSc1ccc(C2c3[nH]c4ccccc4c3CCN2C(=O)CCc2ccccc2)cc1 (stereo not drawn) -10.9%
COc1cccc(CNC(=O)C2CCN(S(=O)(=O)c3ccc4c(ccn4C)c3)CC2)c1 5.56%
COc1ccc(-c2cn3cccnc3n2)cc1NC(=O)c1c(F)cccc1F -6.11%
COc1ccc(C)cc1Nc1nc2ccccc2c2nnc(C)n12 -10.1%
Cc1cccc(CCNC(=O)CCS(=O)(=O)c2cc3c(cc2Cl)NC(=O)CO3)c1 5.41%
Cc1ccc(-n2nc3c(=O)n(CCCC(=O)NCCc4ccccc4)nc(C)c3c2C)cc1 -9.91%
CC(C)c1nc2ccc(C(=O)NCc3ccc(N(C)C)cc3)cc2o1 -14.9%
Cc1cc(NS(=O)(=O)c2ccc3nc(-c4ccccc4)[nH]c3c2)ccc1Br -9.45%
CC(C)C(=O)Nc1ccc2nc(SCC(=O)N3CCOCC3)sc2c1 -11.5%
C=C[C@H]1CN2CC[C@H]1C[C@H]2[C@H](O)c1ccnc2ccc(OC)cc12 -8.4%
COc1ccccc1-c1noc(CSc2nnc(Cc3ccccc3)n2-c2ccc(C)c(C)c2)n1 -10.7%
Cc1ccc(C)n1-c1nnc(N2CCC(C(=O)NCc3ccc(F)cc3)CC2)s1 -9.33%
CCc1nc2cccnc2n1-c1ccc(CC(=O)Nc2ccccc2Cl)cc1 -9.33%
CCN1CCN(C(c2cccc(F)c2)c2c(O)cc(C)n(CCOC)c2=O)CC1 (stereo not drawn) -10.8%
COc1ccc(Cl)cc1NC(=O)c1cc(S(=O)(=O)N2CCC(C)CC2)cn1C -11.9%
CCOc1ccc(CNC(=O)CCC(=O)N2CC3CCCN3c3ccccc32)cc1 (stereo not drawn) -10.9%
Cc1cccc(NC(=O)CSc2nc3c(oc4ccccc43)c(=O)n2Cc2ccco2)c1 -10.6%
O=S(=O)(c1ccc(Br)cc1)c1nnn2c1nc(NC1CCCCCC1)c1sccc12 -5.94%
Cc1ccc(N2CC(c3nnc(NC(=O)c4ccco4)s3)CC2=O)cc1Cl (stereo not drawn) -11.2%
COc1ccc(CCNC(=O)Cc2c(C)c3cc4c(C(C)(C)C)coc4c(C)c3oc2=O)cc1OC -15.3%
Cc1cc(C)c2c(c1)NC(=O)C2(O)c1c[nH]c2ccccc12 (stereo not drawn) -14.6%
Cc1ccc2c(c1)cc1c(=O)n(Cc3cccc(Cl)c3)nc(C)n12 -11.3%
